The supplement of paper PMC3334620
Whole data set: some 33,000 sequences, median “E-score (-0.5 to 0.5)” near -0.032, cut for the highest 2% near 0.36. This is one part of the list.

Target: T1, Sko1 (UniProt Q02100)
T1 sequence: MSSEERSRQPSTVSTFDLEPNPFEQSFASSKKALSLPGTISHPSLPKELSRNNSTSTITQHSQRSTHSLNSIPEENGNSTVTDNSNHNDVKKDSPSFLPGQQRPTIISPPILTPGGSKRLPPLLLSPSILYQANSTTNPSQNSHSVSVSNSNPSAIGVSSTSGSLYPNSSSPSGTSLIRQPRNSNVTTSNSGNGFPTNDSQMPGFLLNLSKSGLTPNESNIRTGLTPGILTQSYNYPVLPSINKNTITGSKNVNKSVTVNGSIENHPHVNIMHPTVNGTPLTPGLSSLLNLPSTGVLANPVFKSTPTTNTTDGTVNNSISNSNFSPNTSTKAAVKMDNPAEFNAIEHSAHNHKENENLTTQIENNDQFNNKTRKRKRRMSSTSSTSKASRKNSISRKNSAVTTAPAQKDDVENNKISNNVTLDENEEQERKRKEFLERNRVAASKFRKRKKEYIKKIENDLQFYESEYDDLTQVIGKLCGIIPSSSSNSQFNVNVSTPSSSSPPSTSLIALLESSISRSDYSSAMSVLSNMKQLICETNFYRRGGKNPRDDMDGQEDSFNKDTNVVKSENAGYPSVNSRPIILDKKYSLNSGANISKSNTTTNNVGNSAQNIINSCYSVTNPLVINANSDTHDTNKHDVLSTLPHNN
Experiment: PBM E-score (8-mer binding enrichment) (E-score (-0.5 to 0.5)); higher = stronger / more preferred TF binding; most listed sequences are background and not binding sites
Details: protein concentration: 200 nM; construct: GST-full length
Method: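 Universal 'all 10-mer' protein binding microarrays (Agilent AMADID 015681) probed with GST-tagged S. cerevisiae TFs (full-length or DBD) made by in vitro transcription/translation (PURExpress), about 100-200 nM. Bound TF was detected with fluorescent anti-GST. Each ungapped 8-mer (which stands for itself and its reverse complement) is scored by the PBM enrichment score (E-score), a modified Wilcoxon-Mann-Whitney statistic from -0.5 to +0.5, computed with the Universal PBM Analysis Suite. Scale: above 0.35 generally sequence-specific binding.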

| Sequence | PBM E-score |
| --- | --- |
| TGGGTACA | -0.0867 |
| TAGCGTGA | 0.0886 |
| CGGCTCGC | 0.0398 |
| CATTGAAG | -0.167 |
| TTAGCGAA | 0.172 |
| CAGCAAAC | -0.039 |
| GATATGTA | 0.137 |
| CCCTACTA | -0.19 |
| CCGACCAC | -0.182 |
| AAATTACT | 0.196 |
| CTGAATTA | 0.17 |
| CTGCTAGC | -0.357 |
| AGCGCAAT | 0.0809 |
| AGATCTTG | -0.175 |
| AACTCTGA | 0.0952 |
| ACTAGGAC | -0.174 |
| GAAAGTGA | 0.215 |
| AACCAGAA | 0.0649 |
| CTGCACTA | 0.0142 |
| AGGCATAA | -0.198 |
| CAATATAG | -0.00127 |
| CAGAAAGC | 0.129 |
| GGTTTAAA | 0.138 |
| ACGTCGAA | 0.292 |
| AAGTCCGT | -0.183 |

| Sequence | PBM E-score |
| --- | --- |
| GTGCACAA | -0.0832 |
| ATGGTCGG | -0.186 |
| AGTACCGC | -0.0783 |
| ATTGTCTG | 0.022 |
| CTGGGGAA | -0.214 |
| TAATTGTA | 0.208 |
| AGAACCTC | -0.277 |
| CCGTAGCG | -0.239 |
| ATCATCAC | 0.334 |
| ACACCGTA | -0.0828 |
| ACTTCGCA | 0.192 |
| CAGGTAGC | -0.301 |
| CCTCATCC | -0.292 |
| TCAAGTGA | 0.087 |
| CTACGGGC | -0.281 |
| CAATGCGC | 0.159 |
| TGGGAAAA | 0.00787 |
| TCTCAGAA | 0.0658 |
| AAGCATTA | 0.0399 |
| AATATTGA | 0.181 |
| CCCTACCC | -0.0678 |
| GACGTGCA | 0.389 |
| AGGCCTCG | -0.362 |
| AATATTCG | 0.243 |
| AGATGACT | -0.0299 |

| Sequence | PBM E-score |
| --- | --- |
| GCAAACGC | 0.088 |
| ATGCTCCA | -0.253 |
| GAATTCGC | -0.0681 |
| AAAAGAGG | -0.184 |
| CGACGCCG | -0.0938 |
| GACGTATC | 0.422 |
| CAATCTCG | -0.137 |
| AAGGACGA | -0.0948 |
| ACCGACAC | -0.108 |
| ACCGGGCC | -0.157 |
| AGGTATAC | 0.11 |
| GCTTTGAC | 0.113 |
| TAGTAGGA | -0.11 |
| TCCAACAA | 0.0795 |
| ACTAACAA | -0.0482 |
| CTCCATTA | -0.0268 |
| AAGGTGAT | 0.0841 |
| CGTGCCAG | -0.101 |
| AGGCAGCA | -0.0239 |
| ACCACAAA | 0.0563 |
| CCTTAGAC | -0.043 |
| AATATAAT | 0.0933 |
| CCGACGAC | 0.00622 |
| ATCGTCCC | -0.0614 |
| AAGCGTCG | -0.0102 |

| Sequence | PBM E-score |
| --- | --- |
| GTTGCCGA | 0.0716 |
| CCCTCCAG | -0.445 |
| AACCTCGC | -0.147 |
| GACCGAGA | -0.156 |
| CCTACGCA | 0.361 |
| CGTCTTCC | 0.0924 |
| GCCATCAA | -0.0252 |
| TAACTTGA | 0.0943 |
| AGCCTACT | -0.072 |
| AGTCGCTC | 0.0147 |
| ACTTCTGG | -0.188 |
| ATCTGAAC | -0.00514 |
| CAGCATTC | -0.0939 |
| CATGACAC | 0.258 |
| CGATGCTA | -0.104 |
| CCCTAAGC | -0.294 |
| CGTGCGCA | 0.205 |
| CAGGGTGA | -0.0395 |
| CAAGTCTG | -0.135 |
| CCAACATA | 0.0619 |
| CGTCTACA | 0.0862 |
| AACGGATG | -0.0941 |
| TGGCCGAA | -0.00295 |
| GTTCGGTA | -0.0838 |
| CTCTCATA | -0.148 |

| Sequence | PBM E-score |
| --- | --- |
| GTTACATA | 0.251 |
| ACTTTGTG | -0.00432 |
| GCCTGCAC | -0.131 |
| ACGCGGGA | -0.129 |
| ACCAAATA | 0.163 |
| CGCCACGA | 0.0632 |
| AGTATGCC | -0.147 |
| CATGGATC | -0.269 |
| CTAGCTCA | -0.0524 |
| AGGAGCAA | -0.156 |
| CTGGTCGA | -0.323 |
| GATAGTTA | 0.128 |
| AATTCGAA | 0.134 |
| ACGGTTTC | -0.187 |
| ACGTCTCA | 0.314 |
| GCACATAC | -0.0289 |
| CACGTGAG | 0.344 |
| CCGCAAAG | -0.149 |
| GCCCGATA | -0.0728 |
| CGTAGTAA | 0.253 |
| AATGCGAT | -0.0641 |
| ACAGACGA | 0.0134 |
| AATCCAGG | -0.0918 |
| TCCGAGCA | 0.021 |
| AAGATATG | 0.224 |

| Sequence | PBM E-score |
| --- | --- |
| GAAGGCAA | 0.0281 |
| CCAAAGGC | -0.154 |
| ACCTAGCA | -0.0426 |
| ACGTCAGC | 0.48 |
| AGCCAATC | -0.0842 |
| GCTATGAC | 0.364 |
| CCGTCACG | 0.152 |
| GAGTGGAA | -0.00763 |
| AGGGCCAA | -0.284 |
| TGATTGCA | 0.0949 |
| ACCCGCAC | -0.12 |
| CAGGGATC | -0.342 |
| GACAAATA | 0.252 |
| AGGACTCG | -0.205 |
| CAGACGGG | -0.395 |
| AGGATTGC | -0.131 |
| AAATCCCG | -0.0636 |
| CGCCGCTC | -0.232 |
| ATGATATC | 0.189 |
| CCCCACGC | -0.22 |
| ATGAGCCA | 0.0374 |
| CCCGCCTA | -0.0413 |
| GGATTAAC | 0.00022 |
| AAGCCCGA | -0.0428 |
| AATAAGAC | 0.101 |

| Sequence | PBM E-score |
| --- | --- |
| CGTCTAGC | 0.132 |
| ATCGACCA | -0.165 |
| CGAGAATC | -0.014 |
| ACACAATC | 0.216 |
| TGTCAGAA | 0.0969 |
| ACGTTGAA | 0.245 |
| ATGCAACC | -0.0774 |
| GCTACAAA | 0.0814 |
| CACTATTC | 0.0287 |
| CATGCACG | 0.149 |
| AAGGATGA | -0.0165 |
| AAGTTCGG | -0.128 |
| CTGGACCA | -0.0832 |
| AAGAGATG | 0.0402 |
| GGTGCCAA | -0.105 |
| ACACTTGG | -0.196 |
| ATCGGCTC | -0.0184 |
| ACTTCGAG | -0.0142 |
| AGAATTCC | -0.198 |
| GACCTTGA | -0.0893 |
| AGACGTTA | 0.283 |
| AGGTAGGG | -0.137 |
